Data taken from the supplement of paper PMC12217912.
This is one part of the list. Sequences were assembled here from the parent chain. Values near 0.05 are background.

B1: TEV protease; numbered along this chain (parent)
chain: MGESLFKGPRDYNPISSSICHLTNESDGHTTSLYGIGFGPFIITNKHLFRRNNGTLVVQSLHGVFKVKDTTTLQQHLVDGRDMIIIRMPKDFPPFPQKLKFREPQREERICLVTTNFQTKSMSSMVSDTSCTFPSGDGIFWKHWIQTKDGQCGSPLVSTRDGFIVGIHSASNFTNTNNYFTSVPKNFMELLTNQEAQQWVSGWRLNADSVLWGGHKVFMVKPEEPFQPVKEATQL

Variants of: B1
Test: raw area under fraction-flipped curve 0-4 h after induction (AUC4h, not background-subtracted), DNA-recorder readout of cleavage of the substrate (dimensionless); higher = more cleavage of the substrate by the protease variant
Settings: temperature: 34 °C; time window: 0-4 h after rhamnose induction
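Further: Bxb1 expression induced with 0.2% (w/v) L-rhamnose at OD600 near 0.5, cultures sampled hourly, flipped fraction per protease–substrate barcode pair counted by paired-end Illumina sequencing.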

Row | Variant | area with substrate ENCYFQS | area with substrate ENEYFQS | area with substrate ENFYFQS | area with substrate ENGYFQS | area with substrate ENMYFQS | area with substrate ENNYFQS | area with substrate ENQYFQS | area with substrate ENRYFQS | area with substrate ENDYFQS | area with substrate ENHYFQS | area with substrate ENIYFQS | area with substrate ENKYFQS | area with substrate ENSYFQS | area with substrate ENTYFQS | area with substrate ENVYFQS | area with substrate ENYYFQS | area with substrate ENPYFQS | area with substrate ENWYFQS
1 | G162S | 0.0628 | 0.0606 | 0.0561 | 0.0509 | 0.0637 | 0.0584 | 0.0514 | 0.0542 |  |  |  |  |  |  |  |  |  | 
2 | V165G | 0.0477 | 0.0588 | 0.0506 | 0.0685 |  | 0.0471 | 0.0454 |  | 0.0668 | 0.056 | 0.0811 | 0.0562 | 0.0951 | 0.0452 |  |  |  | 
3 | S171V | 0.0682 | 0.0744 |  | 0.0507 | 0.0662 | 0.0584 | 0.0539 |  | 0.0619 | 0.036 | 0.0505 |  | 0.0464 |  | 0.0585 | 0.0835 |  | 
4 | T174P | 0.0565 | 0.0627 |  |  | 0.0666 | 0.0584 | 0.0666 |  | 0.0586 |  |  | 0.0532 |  | 0.071 | 0.0555 |  |  | 
5 | N175R | 0.0731 |  | 0.0549 |  |  | 0.0622 | 0.0648 |  | 0.0833 |  |  |  |  |  |  | 0.0654 |  | 
6 | T176A | 0.065 |  | 0.0784 | 0.0791 | 0.0673 |  | 0.0651 | 0.0519 |  |  |  |  | 0.0658 |  |  | 0.0517 | 0.0728 | 
7 | V183R | 0.0557 |  |  |  |  |  | 0.0808 |  |  | 0.0569 | 0.0482 | 0.0673 | 0.0417 |  | 0.0493 |  | 0.0481 | 0.0491
8 | N193G | 0.0681 | 0.0543 |  | 0.0576 |  | 0.0906 | 0.0571 |  | 0.0779 |  |  |  | 0.0417 | 0.0405 |  |  | 0.0697 | 
9 | Q194L | 0.0626 | 0.0593 | 0.0611 | 0.0476 |  |  | 0.0509 | 0.0501 |  |  | 0.0908 |  |  |  | 0.0811 | 0.066 |  | 
10 | Q198C | 0.0632 | 0.0587 | 0.0706 | 0.0627 | 0.0426 | 0.0332 | 0.062 | 0.0594 | 0.0858 | 0.0696 |  | 0.0533 | 0.117 | 0.0737 | 0.0686 |  | 0.0664 | 0.0571
11 | Q198W | 0.0677 | 0.0568 |  | 0.0561 |  | 0.0602 | 0.0641 | 0.0511 | 0.06 | 0.047 | 0.0688 |  | 0.0677 |  | 0.0895 | 0.0606 | 0.0534 | 0.0104
12 | V210L | 0.0616 | 0.0661 | 0.0503 | 0.0584 | 0.0799 |  | 0.0684 | 0.055 | 0.0588 | 0.0635 | 0.08 | 0.0677 | 0.0547 | 0.071 | 0.0646 |  |  | 
13 | V210S | 0.0607 | 0.0522 | 0.0759 |  | 0.0484 | 0.0581 | 0.0676 |  | 0.0661 | 0.0596 | 0.0669 | 0.0536 | 0.0645 | 0.052 | 0.0538 | 0.0859 | 0.0424 | 
14 | P225L | 0.0612 | 0.0765 | 0.0577 | 0.0592 |  | 0.0708 | 0.0619 | 0.047 | 0.0632 | 0.0509 | 0.0911 | 0.0631 |  | 0.062 | 0.0686 | 0.0653 |  | 0.0732
15 | V229I | 0.0598 | 0.0391 | 0.065 | 0.0512 | 0.0924 | 0.0542 |  |  |  | 0.0403 | 0.142 |  | 0.0417 | 0.0579 | 0.0767 |  |  | 
16 | I19S |  | 0.0723 |  |  |  |  | 0.051 |  | 0.0609 |  |  |  |  |  | 0.0683 |  | 0.0665 | 
